# Measurements published in publication PMC4336329 (PLoS ONE, 2015).
# The whole screen tested about 310,000 compounds, of which about 14,000 (4.5%) showed an effect of 50% or more. Effects have a minus sign here. The list shows a part of the results.
# Target: human ether-à-go-go-related gene (hERG) potassium channel (human, UniProt Q12809)
# Assay: primary screen, population patch clamp on CHO cells stably expressing hERG
# 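Note: peak tail current of the secondary pulse compared with the same well before compound.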
# human ether-à-go-go-related gene (hERG) potassium channel, sequence (Q12809 whole entry, looked up): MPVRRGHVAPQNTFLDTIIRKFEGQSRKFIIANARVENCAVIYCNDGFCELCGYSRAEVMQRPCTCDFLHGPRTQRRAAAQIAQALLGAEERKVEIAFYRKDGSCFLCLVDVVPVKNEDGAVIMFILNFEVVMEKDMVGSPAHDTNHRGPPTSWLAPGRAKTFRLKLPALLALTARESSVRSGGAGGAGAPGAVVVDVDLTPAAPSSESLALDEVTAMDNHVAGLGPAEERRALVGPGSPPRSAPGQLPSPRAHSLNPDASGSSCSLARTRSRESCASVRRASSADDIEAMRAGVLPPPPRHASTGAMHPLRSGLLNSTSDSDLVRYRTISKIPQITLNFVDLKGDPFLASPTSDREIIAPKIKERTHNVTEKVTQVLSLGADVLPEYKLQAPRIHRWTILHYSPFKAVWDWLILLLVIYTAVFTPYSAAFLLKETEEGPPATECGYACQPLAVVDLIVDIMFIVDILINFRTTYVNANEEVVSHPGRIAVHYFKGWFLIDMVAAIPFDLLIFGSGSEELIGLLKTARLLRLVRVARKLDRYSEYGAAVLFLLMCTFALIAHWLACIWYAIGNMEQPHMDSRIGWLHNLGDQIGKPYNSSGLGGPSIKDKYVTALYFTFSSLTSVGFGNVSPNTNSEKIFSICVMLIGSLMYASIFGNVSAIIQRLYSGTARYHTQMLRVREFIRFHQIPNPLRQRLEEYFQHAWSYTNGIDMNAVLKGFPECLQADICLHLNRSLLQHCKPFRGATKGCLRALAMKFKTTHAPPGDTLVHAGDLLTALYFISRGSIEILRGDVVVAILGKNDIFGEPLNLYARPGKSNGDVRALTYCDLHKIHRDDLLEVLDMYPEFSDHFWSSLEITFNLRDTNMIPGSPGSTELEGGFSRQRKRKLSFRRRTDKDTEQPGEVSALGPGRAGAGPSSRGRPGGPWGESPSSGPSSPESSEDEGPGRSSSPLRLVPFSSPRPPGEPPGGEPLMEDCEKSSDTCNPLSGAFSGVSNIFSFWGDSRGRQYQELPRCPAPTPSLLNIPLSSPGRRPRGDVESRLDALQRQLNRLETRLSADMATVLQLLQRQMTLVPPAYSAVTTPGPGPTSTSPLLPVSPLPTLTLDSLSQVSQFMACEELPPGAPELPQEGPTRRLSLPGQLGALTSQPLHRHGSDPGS
row,SMILES,"hERG current change (%, negative = inhibition) at 10uM [%]"
1,Cc1ccc2nc(SCC(=O)N3CCCCC3)nc(=O)n2c1,11.4
2,O=[N+]([O-])c1ccc(Sc2nnnn2-c2ccccc2)c(Cl)c1,-41
3,CN1CCN(c2ncnc3nc[nH]c23)CC1,18.5
4,O=C(NCCNc1ccccc1[N+](=O)[O-])c1cc(F)c(F)cc1Cl,-52.1
5,CS(=O)(=O)N(Cc1ccccc1)c1ccc(C(=O)NCc2cccnc2)cc1,-20.8
6,COc1ccc(CCNC(=O)c2ccncc2)cc1OC,4.62
7,CCOc1ccc(C(=O)NCC2CCCO2)cc1 (stereo not drawn),0.74
8,O=C(CNC(=O)c1ccc(Br)o1)NCCc1ccc(F)cc1,17.2
9,COc1ccc(CCC(=O)Nc2ccc3c(c2)OCCO3)cc1,3.14
10,Cc1cccc(N2C(=O)NC(=O)/C(=C\c3cnn(-c4ccccc4)c3)C2=O)c1,1.93
11,COc1ccc(CCNC(=O)c2ccc(=O)[nH]n2)cc1OC,3.35
12,CC(O)[C@H]1CNC(=O)C(=O)N1CCc1cccc2ccccc12 (stereo partly drawn),20.8
13,COc1ccc(OC)c(/C(C)=N/Nc2ccc(C(=O)O)cc2)c1.O=S(=O)(O)O,7.08
14,O=C(NN=C1CCCC1)c1ccc(O)cc1,17.7
15,COc1ccccc1OCC#CCn1ccnc1.O=C(O)C(=O)O,17.5
16,O=C(COC(=O)c1ccc(S(=O)(=O)N2CCOCC2)cc1)NC1CCCCCC1,7.29
17,Cc1ccc(C[n+]2ccccc2)cc1.[Br-],20
18,O=C(Nc1ccc(F)cc1)c1ccc(Cn2cnnn2)cc1,0.645
19,O=C(Nc1cccc(NC(=O)c2ccc3c(c2)OCO3)c1)c1ccccc1,20
20,Cc1cc(N2C(=O)CCC2=O)ccc1NC(=O)c1cccs1,23.2
21,CCCn1c(N2CCN(S(=O)(=O)Cc3ccccc3)CC2)nc2ccccc21,4.46
22,Cc1cccc(COc2ccc(/C=N/NC(=O)c3nnn(-c4nonc4N)c3CN3CCCCC3)cc2)c1,7.63
23,O=C(CN1CCCCCC1)Nc1ccccc1C(=O)Nc1ccccc1,-11.9

row,SMILES,"hERG current change (%, negative = inhibition) at 10uM [%]"
1,CC(C)CCNC(=O)c1ccc(Cl)c(NC(=O)c2ccccc2F)c1,13.9
2,O=C(COc1ccc([N+](=O)[O-])cc1)N(Cc1cccs1)C1CCS(=O)(=O)C1 (stereo not drawn),-52.3
3,COCCCN(C(=O)Nc1ccccc1)C(C)c1ccncc1 (stereo not drawn),-12.2
4,COc1ccc(C(=O)NC(=S)N2CCCCC2)cc1,2.15
5,COc1cc(-c2noc(C)c2/C=C/c2ccc(OC(C)=O)cc2)cc(OC)c1OC,13
6,O=C(Nc1ccc(NC(=O)C2CCCCC2)cn1)c1ccco1,4.68
7,Cn1c(N2CCN(S(=O)(=O)c3ccc(F)cc3)CC2)nc2ccccc21,-3.73
8,C=CCON1C(=O)C(=O)N(OCC=C)[C@H]2CCCC[C@H]21,-3.99
9,O=C(Nc1nncs1)c1ccc(N2C(=O)C3C4C=CC(C4)C3C2=O)cc1 (stereo not drawn),19.8
10,CCOC(=O)Cn1c(=O)n(C2CCCC2)c(=O)c2ccccc21,-13
11,CCOc1ccc2c(c1)c(C(C)=O)c(C)n2Cc1ccco1,10.3
12,COc1ccccc1C(c1nnnn1CS(=O)(=O)c1ccc(C)cc1)N1CCSCC1 (stereo not drawn),-4.48
13,COc1ccc(N(C(=O)CNC(=O)c2ccco2)C(C(=O)NC2CCCCC2)c2ccco2)cc1 (stereo not drawn),8.58
14,NC(=O)c1ccc(NC(=O)CSc2nnc(C3CCCCC3)n2N)cc1,18
15,Cn1cc(/C=C(\NC(=O)c2ccccc2)C(=O)N2CCOCC2)c2ccccc21,-3.45
16,CCN(CC)C(=O)COC(=O)C1=NN(c2cc(C)ccc2C)C(=O)CC1,13.1
17,CCO[C@@H]1OC(C(=O)NCc2ccccc2)=C[C@H](c2ccccc2)[C@H]1CCCO,-18.7
18,O=C(NCCCN1CCN(c2ccccc2F)CC1)C1CCC(=O)N1C1CCCC1 (stereo not drawn),-0.824
19,Cc1cccc(CC(=O)Nc2cc(C)c3c(=O)oc4ccccc4c3n2)c1,8.36
20,CCOC(=O)CSc1nnc(CNC(=O)c2cccs2)n1Cc1ccccc1,-22.4
21,CCOCCCNCc1cc(Br)ccc1OCc1ccccc1,-68.1
22,COc1cc(/C=C2\C(=N)N3N=C(S(C)(=O)=O)SC3=NC2=O)ccc1OC(=O)c1ccco1,-0.489
